Measured values as given in paper PMC6501163, “Icariin Inhibits AGE-Induced Injury in PC12 Cells by Directly Targeting Apoptosis Regulator Bax” (Oxidative Medicine and Cellular Longevity, 2019).

Molecular target: the molecule itself
Experiment: cross-linking; PC12 cells stimulated with AGEs (300 ug/mL); lysed with NP40 buffer; 1 mM disuccinimidyl suberate in 20 mM HEPES, 100 mM KCl, 1 mM dithiothreitol, pH 8.0, 1 h at room temperature; western blot for Bax (monomer around 21 kDa, dimer around 42 kDa)

B1: apoptosis regulator Bax (natural protein)
chain: not shown
notes: Apoptosis regulator Bax, endogenous in rat PC12 pheochromocytoma cells; monomer band around 21 kDa; Detected by western blot with an anti-Bax antibody after DSS cross-linking of the cell lysate; source: endogenous, PC12 lysate (NP40 buffer)
stoichiometry N: 2
